Measured values: publication PMC4336329 (PLoS ONE, 2015)
Among all 310,000 compounds or so, about 14,000 (4.5%) showed an effect of 50% or more. The effect is printed as a negative number. Some of the results follow.

Biological target: human ether-à-go-go-related gene (hERG) potassium channel (human, UniProt Q12809)
Experiment: primary screen, population patch clamp on CHO cells stably expressing hERG
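Further: peak tail current of the secondary pulse compared with the same well before compound.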

Chain of human ether-à-go-go-related gene (hERG) potassium channel (Q12809 whole entry, looked up): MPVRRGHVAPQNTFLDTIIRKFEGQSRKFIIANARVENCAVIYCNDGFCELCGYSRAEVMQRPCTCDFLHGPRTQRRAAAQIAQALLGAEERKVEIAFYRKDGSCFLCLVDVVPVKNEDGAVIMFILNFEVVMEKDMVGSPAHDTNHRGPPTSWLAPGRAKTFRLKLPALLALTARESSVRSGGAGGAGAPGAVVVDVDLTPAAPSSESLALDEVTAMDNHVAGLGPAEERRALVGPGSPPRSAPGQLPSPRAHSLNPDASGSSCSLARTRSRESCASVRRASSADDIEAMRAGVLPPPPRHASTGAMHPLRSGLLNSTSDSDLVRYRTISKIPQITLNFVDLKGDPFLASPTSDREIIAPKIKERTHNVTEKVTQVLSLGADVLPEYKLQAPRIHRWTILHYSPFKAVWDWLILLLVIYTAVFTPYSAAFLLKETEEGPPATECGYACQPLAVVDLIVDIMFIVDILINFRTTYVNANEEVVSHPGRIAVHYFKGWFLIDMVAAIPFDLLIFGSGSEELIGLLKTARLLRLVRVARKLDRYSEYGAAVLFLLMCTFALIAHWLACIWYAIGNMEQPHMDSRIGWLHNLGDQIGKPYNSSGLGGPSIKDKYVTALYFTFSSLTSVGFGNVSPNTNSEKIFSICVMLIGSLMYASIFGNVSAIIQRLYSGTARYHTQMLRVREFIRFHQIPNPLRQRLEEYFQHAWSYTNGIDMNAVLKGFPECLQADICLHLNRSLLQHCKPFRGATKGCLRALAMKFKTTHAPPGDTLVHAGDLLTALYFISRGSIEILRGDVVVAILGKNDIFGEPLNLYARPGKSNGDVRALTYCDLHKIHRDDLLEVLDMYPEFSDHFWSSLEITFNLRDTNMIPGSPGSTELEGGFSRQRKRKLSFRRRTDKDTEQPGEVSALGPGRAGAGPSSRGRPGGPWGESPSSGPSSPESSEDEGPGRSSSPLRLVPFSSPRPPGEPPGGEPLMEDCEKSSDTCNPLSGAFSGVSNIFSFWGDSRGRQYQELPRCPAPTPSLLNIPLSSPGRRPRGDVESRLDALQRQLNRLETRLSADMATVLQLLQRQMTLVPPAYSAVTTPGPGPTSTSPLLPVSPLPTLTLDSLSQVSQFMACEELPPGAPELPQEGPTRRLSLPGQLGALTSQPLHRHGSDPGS

Compound	hERG current change (%, negative = inhibition) at 10uM [%]
CCc1nn(CCCN2CCN(c3cccc(Cl)c3)CC2)c(=O)n1CCOc1ccccc1	-63.2
CN1C(=O)c2ccc(NC(=O)c3cccc(N4C(=O)CCC4=O)c3)cc2C1=O	4.17
CC(OC(=O)c1ccncc1)C(=O)Nc1cccc([N+](=O)[O-])c1 (stereo not shown)	-10.9
Cc1ccc(C2=NCCn3c2c2ccccc2[n+]3[O-])cc1	-4.88
NC(=O)c1ccccc1NC(=O)Nc1cccc2ccccc12	21.1
c1ccc(-c2nnc(CN3CCCc4ccccc43)o2)cc1	-19.4
Cc1cc(C)nc(Sc2ccc3nnc(C(F)(F)C(F)(F)C(F)(F)F)n3n2)n1	16.7
Cc1ccc(C(=O)N/C(=C\c2ccc(-c3ccc(Br)cc3)o2)C(=O)NCCCN(C)C)cc1	-80.3
Cc1ccc(OCCOc2ccc(Br)cc2/C=N\NC(N)=O)cc1	15.9
COc1cccc(NC(=O)/C=C/c2ccc([N+](=O)[O-])cc2)c1	-19.5
Nc1c(N(C(=O)Nc2ccc(Cl)c(Cl)c2)C2CCCC2)c(=O)[nH]c(=O)n1Cc1ccccc1	24.7
COc1ccc(N2CCN(CCNC(=O)Nc3cccc(C)c3C)CC2)cc1	2.59
O=C(N/N=C/c1cccc([N+](=O)[O-])c1)c1cc2ccccc2o1	17.5
Cc1c([N+](=O)[O-])c(N)nn1C	15.5
Cc1cc(C)c(-c2cc(C(=O)Nc3cc(C)ccc3C)[nH]n2)c(O)c1	17.3
CCN1CCN(CC(=O)NC2CCCC2)C(=O)C1=O	-4.52
CCN(CC)CCCNC(=O)c1cc(-c2ccc(O)cc2)on1	-37.3
NS(=O)(=O)c1ccc(N/C=C\C(=O)c2ccncc2)cc1	-1.26
COc1ccc(-c2nc3ccccc3[nH]2)cc1	-10.5
CCOC(=O)C1CCN(C(=O)C2CCN(S(=O)(=O)N3CCC4(CC3)OCCO4)CC2)CC1	18.4
CSc1nnc(-c2ccccc2SC)o1	6.43
Cc1cc(C)cc(NC(=O)CSCc2nc3c(nnn3Cc3ccc(F)cc3)c(=O)[nH]2)c1	9.81

Compound	hERG current change (%, negative = inhibition) at 10uM [%]
CCC(=O)N1N=C(c2ccc(C)o2)CC1c1ccc(N(C)C)cc1 (stereo not shown)	-2.39
CC(O)c1cccc(NC(=O)Cc2cccc3ccccc23)c1 (stereo not shown)	16.9
Nc1nc(NC(=O)c2cccs2)nn1-c1ccccc1	4.89
CSc1nc2c(c(=O)n1-c1ccccc1)SCC2	6.28
CCN(CC(=O)Nc1ccc(Br)c(C)c1)CC(=O)NC(C)C	-4.86
Cc1cc(C)nc(N2N=C(c3ccccc3)CC2=O)n1	4.31
Cc1nn(Cc2ccccc2Cl)c2sc(C(=O)NCc3ccc4c(c3)OCO4)cc12	3.08
Cc1ccccc1OCCCCc1c(C)n[nH]c1C	1.24
COc1cc(/C=N/NC(=O)CNC(=O)c2cccs2)ccc1O	2.5
COc1ccc(C(=O)CN2C(=O)c3ccccc3C2=O)cc1	7.16
C#CCOCCOCCOCCNc1nc(N2CCN(C(=O)[C@H]([C@@H](C)CC)n3cc([C@@H](N)Cc4ccc(O)cc4)nn3)CC2)nc(N2CCN(C(=O)[C@H](Cc3cc4ccccc4[nH]3)n3cc([C@@H](N)CC(C)C)nn3)CC2)n1.Cl	20.4
O=C(/C=C/c1ccc(S(=O)(=O)N2CCOCC2)cc1)NC(=S)NCCCn1ccnc1	-39.1
O=C(NCCN1CCCCC1)c1ccc(/C=N/O)nc1	13.6
CN1C(=O)Cc2cc(S(=O)(=O)NCc3cccs3)ccc21	5.48
CCN(CC)S(=O)(=O)c1cc(NC(=O)C2CSC3(C)CCC(=O)N23)ccc1C (stereo not shown)	-27.5
O=C(NCCCc1ccncc1)C1CCC(=O)N(Cc2cccc(C(F)(F)F)c2)C1 (stereo not shown)	-18.7
O=C(NNC(=S)Nc1ccc(Cl)cc1)c1cccs1	14.7
Cc1cccc(CCNS(=O)(=O)c2ccc3c(c2)NC(=O)CS3)c1	1.64
Cc1ccc(OCCNC(=O)Cn2cnc3c(=O)n(C)c(=O)n(C)c32)cc1C	10
O=C(c1ccc2c(c1)OCO2)C1CCCN(Cc2c(F)cccc2Cl)C1 (stereo not shown)	-32.5
c1ccc(-c2nccc(-c3ccc4c(c3)OCO4)n2)cc1	12.9
S=C1NCN(Cc2ccco2)CN1	12.2

Compound	hERG current change (%, negative = inhibition) at 10uM [%]
CC(C)(C)OC(=O)N1CCOCCOCCN(C(=O)OC(C)(C)C)CCOCC1	-2.05
CCn1c(C(Cc2ccccc2)NC(=O)COC)nc2ccccc21 (stereo not shown)	-8.89
CCN1CCN(CC(=O)N2N=CCC2c2ccccc2)CC1 (stereo not shown)	3.12
COc1ccc(NC(=O)CSc2nnc(NC(=O)CN3CCOCC3)s2)cc1	19.2
Cc1ccc(-n2nc(C)c(NC(=O)CCl)c2C)cc1C	-8
COc1nccnc1NS(=O)(=O)c1ccc(NC(=O)c2ccccc2Br)cc1	17.4
c1ccc(N2CCN(c3nc4ccccc4[nH]3)CC2)nc1	-64.4
Cc1nn(CCc2n[nH]c(=S)n2-c2ccc(F)cc2)c(C)c1[N+](=O)[O-]	21.3
Cc1cc(C)c2cc(C#N)c(SCC(=O)Nc3cc(C)on3)nc2c1	6.84
O=C(CSCC(=O)Nc1ccccc1)N/N=C/c1c(O)ccc2ccccc12	-5.17
COc1ccc(-c2nc(CN3CCN(Cc4ccccc4)CC3)c(C)o2)cc1	-42.2
COCc1cc(C)nc(SCC(=O)Nc2ccc3c(c2)OCO3)c1C#N	9.96
CC(=O)Cc1nsc(NC(=O)c2ccc(-c3cccc(Cl)c3)o2)n1	10.4
Cc1ccc(OC(C)C(=O)Nc2ccncc2)cc1C (stereo not shown)	9.92
COc1c2c(cc3c1OCO3)CC[N+](C)=C2.[I-]	-0.238
COc1ccc(-c2cnc(SCC(=O)Nc3cc(C)on3)n2Cc2ccco2)cc1	3.14
Cc1nn(-c2ccc(Cl)nn2)c(=O)c2ccccc12	-3.04
CC(C)C(C)NC(=O)COc1ncnc2ccccc12 (stereo not shown)	15.3
CN(C[C@H](c1ccccc1)N(C[C@H](Cc1ccccc1)N(CCc1ccccc1)N=O)N=O)N=O.[Na+]	3.22
O=[N+]([O-])c1ccc(/C=N/Nc2nc3ccccc3o2)cc1	22.6
COc1cccc(C(=O)Cn2c(=O)n(CCC(=O)NCC3CCCO3)c(=O)c3cc(OC)c(OC)cc32)c1 (stereo not shown)	-19.5
Cn1c(=NC(=O)c2ccco2)sc2cccc(F)c21	-7.05

Compound	hERG current change (%, negative = inhibition) at 10uM [%]
O=C(CSc1nc(O)c(Cc2ccccc2)c(=O)[nH]1)Nc1nc2c(s1)CCCC2	25.1
COc1ccc(-c2cc(-c3ccc(OC)cc3)nc(-c3ccc4c(c3)NC(=O)CO4)c2)cc1	-1.3
CC(C)N1CCN(Cc2cc(F)ccc2-n2cccn2)CC1CCO (stereo not shown)	11.2
Cc1cc(C)n(S(=O)(=O)c2cc(Cl)ccc2Cl)n1	-2.9
Cc1cc(C)cc(NC(=O)c2cc(C)nc3ccccc23)c1	3.97
CCc1ccc(-n2nc3ccc(NC(=O)c4ccc5c(c4)OCO5)cc3n2)cc1	0.229
O=[N+]([O-])c1cccc(/C=N\N=C2c3ccccc3-c3ccccc32)c1O	-4.7
CCOc1ccc(S(=O)(=O)N(CC(=O)O)c2ccccc2)cc1	6.99
c1ccc(Oc2cccc(OCCCCSc3ncccn3)c2)cc1	7.47
CCCCOc1ccc(C2(C)NC(=O)N(C)C2=O)cc1 (stereo not shown)	13
COc1ccc(C2c3cc(OC)c(OC)cc3CCN2C2CC(=O)N(c3ccccc3)C2=O)cc1OC (stereo not shown)	3.25
CN(C)c1ccc(-c2nc3cc(N)ccc3o2)cc1	6.31
CC1CCN(CCc2nc3cc(NC(=O)Nc4ccccc4)ccc3n2C)CC1	-44.4
Cc1oc2c(c1C(=O)Nc1cccc(C(=O)O)c1)CCCC2	9.24
COc1ccccc1C(=O)NCCNc1ccc([N+](=O)[O-])cc1Cl	7.12
COc1ccc2cc(C(=O)C3CCCN(C4CCOCC4)C3)ccc2c1 (stereo not shown)	-63.5
CCOC(=O)C(NCc1ccco1)(NC(=O)c1ccc(OC)cc1)C(F)(F)F (stereo not shown)	8.05
CN(C(=O)CN1CCCCCC1)c1c(N)n(Cc2ccccc2)c(=O)[nH]c1=O	8.69
O=S(=O)(c1ccc(OCC(O)CN2CCc3ccccc3C2)cc1)N1CCOCC1 (stereo not shown)	-4.43
Clc1ccc(-c2c[n+](Cc3ccc(Cl)cc3Cl)c3n2CCCCC3)cc1.[Br-]	-66
CCCc1nc2c(s1)CCc1onc(-c3ccc(Cl)cc3)c1-2	16.7
Cc1ccc(NC(=O)N2CCC(O)(c3cccnc3)CC2)cc1	5.23
